Each structure is given as a SMILES string.

Assay [1] has as its system Colletotrichum orbiculare. Particulars: 250 ppm sprayed (2.5 ml/pot) before inoculation; assessed 6 to 10 days after inoculation.
Assay [2] has as its system Phytophthora infestans. In kind it is in vivo. The settings on record: Table 7, Test F.
Assay [3] relates to Magnaporthe grisea. It is filed as in vivo. The settings on record: for control value, Test A (blast on rice): Table 7, Test A.

For `Cc1cnn(-c2ccc(=O)n(CC(F)F)c2-c2ccccc2C)c1` [Compound 303], the “control value, Test H (anthracnose on cucumber)” value (shortened to “control value, Test H”) in assay [1] is reported as “L (L shows the control value of 50% or less)”. In addition, the “control value, Test F (late blight on tomato)” value (shortened to “control value, Test F”) in assay [2] was “L (L shows the control value of 50% or less)”. For the same molecule, the “control value, Test A (blast on rice)” value in assay [3] was “L (L shows the control value of 50% or less)”.

Regarding `CCc1ccccc1-c1c(-n2ncc(C)c2Cl)cc(Br)c(=O)n1CC` [Compound 322], the “control value, Test H” value in assay [1] is “L (L shows the control value of 50% or less)”. In addition, in assay [2], the “control value, Test F” value is given as “L (L shows the control value of 50% or less)”. In addition, the “control value, Test A (blast on rice)” value in assay [3] was “L (L shows the control value of 50% or less)”.

For `CCn1c(-c2c(F)cccc2F)c(-c2ccsc2C)cc(Br)c1=O` [Compound 444], in assay [3] (class of control value, Table 7), the “Test A control value (blast on rice)” value is given as “H (H shows the control value more than 50%)”.

In the case of `CCn1c(-c2ccc(F)cc2Cl)c(-n2ncc(C)c2Cl)cc(Cl)c1=O` [Compound 336], the “control value, Test H” value in assay [1] is reported as “H (H shows the control value more than 50%)”. Also, in assay [2], the “control value, Test F” value is reported as “H (H shows the control value more than 50%)”. Besides, in assay [3], the “control value, Test A (blast on rice)” value is recorded as “H (H shows the control value more than 50%)”.

Source of the values: US11178870B2 (priority 2017, dated 2021).
